Experimental data reported in PubChem BioAssay AID624170 (National Center for Advancing Translational Sciences (NCATS), 2012).
The campaign covered roughly 410,000 compounds. About 850 (0.21%) were called active. The inconclusive results got no clear call from the source; some entries with a clear call stand among them for comparison. Calls follow the shape of the dose curve; as a rule, active = well fitted inhibition curve with a large enough effect; inconclusive = small, poorly fitted or top-dose-only effect, or another doubt; inactive = no such curve, though single readings can be large or run the other way. No potency is given beside an inconclusive call; the fits are too rough.

Target: Glutaminase kidney isoform, mitochondrial (Homo sapiens) (UniProt O94925)
UniProt O94925, sequence (O94925 whole entry, looked up, canonical isoform): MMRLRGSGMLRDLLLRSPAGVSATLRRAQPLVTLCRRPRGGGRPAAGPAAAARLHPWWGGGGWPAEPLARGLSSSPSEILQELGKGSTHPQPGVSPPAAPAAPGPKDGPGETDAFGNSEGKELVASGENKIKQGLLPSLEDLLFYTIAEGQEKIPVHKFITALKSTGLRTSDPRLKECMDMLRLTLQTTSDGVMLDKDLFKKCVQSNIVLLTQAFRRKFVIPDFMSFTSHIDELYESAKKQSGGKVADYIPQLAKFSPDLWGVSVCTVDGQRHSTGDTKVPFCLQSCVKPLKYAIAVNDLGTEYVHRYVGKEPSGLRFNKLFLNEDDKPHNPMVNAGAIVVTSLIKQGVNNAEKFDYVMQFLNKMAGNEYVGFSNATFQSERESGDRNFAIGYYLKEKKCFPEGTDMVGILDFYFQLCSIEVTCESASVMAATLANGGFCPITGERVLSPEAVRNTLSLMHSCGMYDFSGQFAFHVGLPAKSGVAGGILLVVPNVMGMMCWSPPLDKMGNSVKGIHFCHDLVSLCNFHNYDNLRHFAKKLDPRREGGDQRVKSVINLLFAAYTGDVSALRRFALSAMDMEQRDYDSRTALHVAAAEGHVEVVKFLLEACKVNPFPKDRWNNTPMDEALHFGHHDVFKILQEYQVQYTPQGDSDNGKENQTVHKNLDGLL
Assay: qHTS for Inhibitors of Glutaminase (GLS)
Conditions: GLS enzymatic activity, qHTS titration; series mostly up to 45.5 µM
Procedure, shortened: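 Read-out is an Amplex red fluorescence increase coupled through glutamate oxidase and HRP, measured before and after 30 min room-temperature incubation. hKGA is in 45 mM KH2PO4 (pH 8.2) with 0.02% Tween-20; glutamine added as 1mM solution.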
Potency is read from the fitted curve at half-maximal effect; tags tell the direction and shape of the fitted curve.

SMILES | Potency
CCC(C)[C@H](NC(=O)[C@@H]1Cc2c([nH]c3ccccc23)C2c3ccccc3C(=O)N21)C(=O)N1CCC[C@@H]1C(=O)O (stereo partly specified) | inconclusive [inhibitor, single point]
COCCCNC(=S)Nc1cccc2ncccc12 | inactive
Cc1c(OC(C)C(=O)NC(Cc2c[nH]c3ccc(O)cc23)C(=O)O)ccc2c1oc(=O)c1ccccc12 (stereo unspecified) | inconclusive [inhibitor, single point]
O=C(Nc1ccc(N=Nc2ccccc2)c(NC(=O)C2CCCO2)c1)C1CCCO1 (stereo unspecified) | inactive
CCOC(=O)C1=C(C)N=c2s/c(=C\c3ccc(OCC(=O)O)cc3)c(=O)n2C1c1ccc(Cl)cc1 (stereo unspecified) | inconclusive [inhibitor, single point]
COc1ccc(Cl)c2c1[nH]c1nc(SCc3ccccn3)nnc12 | inactive
COc1ccc2c(c1)sc1nc(=O)ccn12 | inactive
COc1ccc(C2CC(=O)c3cnc(N4CCN(Cc5ccccc5)CC4)nc3C2)cc1 (stereo unspecified) | inconclusive [inhibitor, single point]
COc1cccc(COC(=O)c2ccc(S(=O)(=O)N3CCC(C)CC3)cc2)c1OC | inactive
O=c1cc(-c2ccc(O)cc2)oc2ccc(O)cc12 | inactive
C(=C\c1ccccc1)/CSc1ccccn1 | inactive
Cc1ccc(NC(=O)c2ccc(OC(=O)COc3cccc(Cl)c3)cc2)cc1 | inactive
COCCN(CCOC)C(=O)c1cc2c(=O)n3ccccc3nc2n1C | inactive
O=S(=O)(c1ccc(Br)cc1)c1nnn2c1nc(NCc1cccs1)c1sccc12 | inconclusive [inhibitor, single point]
COC(=O)[C@]12CCC(C)(C)C[C@@H]1[C@@H]1C(=O)C=C3[C@@]4(C)C=C(C#N)C(=O)C(C)(C)[C@@H]4CC[C@@]3(C)[C@]1(C)CC2 | inconclusive [inhibitor, partial curve, poor fit]
COc1ccc(CNC(=O)N2CCN(C(=O)c3ccccc3)CC2)cc1 | inconclusive [inhibitor, single point]
COc1ccc(OC)c(/C=N/NC(=O)CCc2ccc(O)c(O)c2)c1 | inconclusive [inhibitor, single point]
Cc1ccc(NC(=O)CN2C(=O)S/C(=C\c3cc(Cl)c(OCC(=O)O)c(Cl)c3)C2=O)cc1 | inconclusive [inhibitor, single point]
Cc1cc(O)c(S(=O)(=O)c2ccccc2)c(C)c1NS(=O)(=O)c1ccccc1 | inconclusive [inhibitor, single point]
CC1(C)CC[C@]2(C(=O)O[C@@H]3OC(CO)[C@@H](O)[C@H](O)[C@H]3O)CC[C@]3(C)C(=CCC4[C@@]5(C)CC[C@H](O[C@@H]6OC(C(=O)O)[C@@H](O)[C@H](O)[C@H]6O)C(C)(C)C5CC[C@]43C)[C@@H]2C1 (stereo partly specified) | inconclusive [inhibitor, single point]
C#CCOCCOCCOCCNc1nc(N2CCN(C(=O)CCCCCCCCCCNC(=O)[C@H](CO)n3cc(CCCSC)nn3)CC2)nc(N2CCN(C(=O)CCCCCCCCCCNC(=O)[C@H](CCCCN)n3cc(CCO)nn3)CC2)n1 | inconclusive [inhibitor, single point]
CC(C)c1cc(C(=O)Nc2cc(Br)ccc2O)no1 | inconclusive [inhibitor, single point]

SMILES | Potency
CC(=O)c1c(O)cc(O)cc1CC(=O)O | inactive
COc1ccc(-c2coc3c(C)c4oc(=O)c(CCC(=O)O)c(C)c4cc23)cc1 | inconclusive [inhibitor, single point]
CCOC(=O)Cc1csc(-n2sc3ccccc3c2=O)n1 | inconclusive [inhibitor, single point]
CC(C)C(c1nnnn1C(C)(C)C)N1CCN(c2cccc(Cl)c2)CC1 (stereo unspecified) | inconclusive [inhibitor, single point]
NNC(=O)c1ccc(CSc2cccc3cccnc23)cc1 | inconclusive [inhibitor, single point]
CC1CCCN(C(=O)CN2C(=O)NC(C)(c3ccc4ccccc4c3)C2=O)C1 (stereo unspecified) | inconclusive [inhibitor, partial curve, poor fit]
O=C(O)CCCNC1=NCCC1 | inactive
Fc1cccc(Cc2c(-c3ccco3)nc3ccc(Cl)cn23)c1 | inconclusive [inhibitor, partial curve, poor fit]
COc1cccc(-c2noc(CCC(=O)NC3CCCCC3)n2)c1 | inactive
CC(C)NC(=O)N(C)C[C@H]1Oc2c(cccc2N(C)C)C(=O)N([C@H](C)CO)C[C@@H]1C | inactive
COc1cc(OC)c2c(O)c3c(c(-c4c5c(c(O)c6c(OC)cc(OC)cc46)CO[C@@H](C)[C@H]5O)c2c1)[C@H](O)[C@H](C)OC3 | inconclusive [inhibitor, single point]
CN(Cc1ccccc1)C(=O)c1ccccc1C(=O)O | inconclusive [inhibitor, single point]
COc1ccc(Cl)cc1NC(=S)NNC(=O)CC(C)C | inconclusive [inhibitor, partial curve]
O=S(=O)(c1ccc(F)cc1)N(Cc1nc(-c2ccc(Cl)cc2)no1)C1CCCCC1 | inactive
CCCCC[C@H](O)/C=C/C1=C(CCCCCCC(=O)O)C(=O)CC1 | inconclusive [inhibitor, single point]
COc1cccc(-n2c(C)c3c(OC)cccc(=O)c3c2C)c1 | inactive
COc1ccccc1NS(=O)(=O)c1ccc(O)c(NC(=S)NCC2CCCO2)c1 (stereo unspecified) | inconclusive [inhibitor, partial curve]
COc1ccc(N2C(=O)/C(=C/N(C)C)NC2=S)cc1 | inconclusive [inhibitor, partial curve, poor fit]
CC1CCC(C(C)C)C(OC(=O)C[n+]2cccc(C(N)=O)c2)C1 (stereo unspecified) | inconclusive [inhibitor, single point]
O=C(O)c1cc(C(=O)O)cc(N2C(=O)CSC2=S)c1 | inconclusive [inhibitor, single point]
Cc1cc(C)c(O)c(-c2cc(C(=O)Nc3cccnc3)[nH]n2)c1 | inconclusive [inhibitor, single point]
CCOC(=O)CC(=O)CSc1ncnc2c1nnn2-c1ccc(F)cc1 | inconclusive [inhibitor, partial curve]

SMILES | Potency
NC(=O)c1c(NC(=O)Cn2nc(C(=O)O)c3ccccc3c2=O)sc2c1CCC2 | inconclusive [inhibitor, partial curve, poor fit]
O=C(O)CCN1C(=O)C2C3CC(C2C1=O)C1C(c2ccccc2)c2sc(=O)n(-c4ccccc4)c2SC31 (stereo unspecified) | inactive
Cc1ccc(S(=O)(=O)c2nnn3c2nc(N2CCCC2)c2sccc23)cc1 | inconclusive [inhibitor, single point]
CCOc1cccc(OCCCOc2ccccc2)c1 | inactive
O=C(CCCCCn1c(=O)[nH]c2ccccc2c1=O)NCc1ccccc1 | active: 8.91 µM
CCCOc1ccc(-c2nc(=S)[nH][nH]2)cc1 | inconclusive [inhibitor, partial curve]
O=C(COC(=O)C1CC(=O)N(Cc2ccco2)C1)c1ccc(OC(=O)c2ccco2)cc1 (stereo unspecified) | inconclusive [inhibitor, single point]
Cc1cc2oc(C(=O)Nc3c(C)n(C)n(-c4ccccc4)c3=O)c(C)c2cc1C | inconclusive [inhibitor, partial curve, poor fit]
CCCS(=O)(=O)c1c(S(=O)(=O)CCC)c2c3ccccc3ccn2c1C(=O)OC | inactive
CN1CC(O)c2cc(N=NC(N)=O)c(O)cc21 (stereo unspecified) | inactive
COc1ccc2[nH]c(=O)c(CN(Cc3nnnn3Cc3ccco3)C3CCCCC3)cc2c1 | inconclusive [inhibitor, single point]
Cc1cccnc1NC(=O)CCCc1c[nH]c2ccccc12 | inactive
COc1ccc(-c2csc(NC(=O)c3cc(C)on3)c2C#N)cc1OC | inconclusive [inhibitor, single point]
CCC(C)(C)C1CCC(NC(=O)N2CCN(c3ccccc3O)CC2)CC1 (stereo unspecified) | inconclusive [inhibitor, partial curve]
Cc1cc(OCC(O)CN2CCCC2)ccc1C(C)C (stereo unspecified) | inactive
O=C(N/N=C/c1cccc([N+](=O)[O-])c1)c1ccc(Br)cc1 | inactive
COc1ccc(N/C(C)=C/C(=S)Nc2ccccc2)cc1 | active: 12.6 µM
O=C(O)c1cccc(N2C(=O)/C(=C/c3ccc(SCc4ccc(Cl)cc4)o3)SC2=S)c1 | inconclusive [inhibitor, single point]
COc1ccc(S(=O)(=O)N2CCCCC2c2cc(C(=O)NCc3ccccc3)no2)cc1 (stereo unspecified) | inconclusive [inhibitor, partial curve]
COc1cc(NC(=O)c2ccco2)c(OC)cc1NC(=O)c1cc(OC)c(OC)c(OC)c1 | inconclusive [inhibitor, single point]
CC(=O)Nc1ccc(S(=O)(=O)Oc2cccc(/C=C3\SC(N)=NC3=O)c2)cc1 | active: 17.8 µM
CC(N)c1csc(NC(=O)c2cc(C(C)(C)C)nn2Cc2ccccc2)n1 (stereo unspecified) | inconclusive [inhibitor, partial curve, poor fit]
